# Results from PubChem BioAssay AID588855 (National Center for Advancing Translational Sciences (NCATS), 2011).
# In all, about 410,000 compounds went through this assay and about 5,000 (1.2%) were called active. The shares of active, inactive and inconclusive entries below differ from those in the screen. Calls follow the shape of the dose curve; as a rule, active = well fitted inhibition curve with a large enough effect; inconclusive = small, poorly fitted or top-dose-only effect; inactive = no such curve, though single readings can be large or run the other way. Where the call is inconclusive, the potency comes from a doubtful curve fit.
# Experiment: qHTS for Inhibitors of TGF-b; also: nearly all actives have a fitted effect of over 65% in size
# Conditions: HepG2 CAGA-GFP TGF-b/SMAD3 reporter, GFP fluorescence, 18 h, TGF-beta stimulated, 500 pg/mL final; series mostly up to 46.1 µM
# How it was run: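 GFP signal (ex488/em500-530) from TGF-beta-stimulated HEPG2 CAGA-GFP cells, 500 pg/mL final, 18 h at 37 degrees C in DMEM plus 1% FBS, normalized to unstimulated and DMSO-stimulated controls.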
# Potency is read from the fitted curve at half-maximal effect; tags tell the direction and shape of the fitted curve.
row,SMILES,Potency
1,Cc1ccc(CN(C(=O)COc2ccc(Cl)c(C)c2)c2ccccn2)o1,inactive
2,CN(C)c1ccc(-c2csc(C(O)(c3ccccc3)C(F)(F)F)n2)cc1 (stereo unspecified),"inconclusive: 22.4 µM [inhibitor, single point]"
3,CCOc1ccc2ncc(S(=O)(=O)c3ccc(C)cc3)c(N3CCC4(CC3)OCCO4)c2c1,"inconclusive: 17.8 µM [inhibitor, single point]"
4,Cc1cc(C)cc(N(CC(=O)NC2CCC(C)CC2)S(=O)(=O)c2c(C)noc2C)c1 (stereo unspecified),inactive
5,COc1ccccc1NC(=O)C1CCCN(S(=O)(=O)c2ccccc2)C1 (stereo unspecified),inactive
6,O=C(CN1C(=O)COc2ccc(S(=O)(=O)N3CCOCC3)cc21)N1CCN(c2cccc(C(F)(F)F)c2)CC1,inactive
7,CCCCN(CCCC)CP(=O)(c1ccccc1)c1ccccc1,"inconclusive: 7.08 µM [inhibitor, partial curve, poor fit]"
8,COc1cc(C(=O)NCC(c2cccnc2)N2CCc3ccccc3C2)cc(OC)c1OC (stereo unspecified),"inconclusive: 12.6 µM [inhibitor, partial curve, poor fit]"
9,Cc1ccc(OCC(=O)N/N=C/c2cn[nH]c2-c2ccc(Cl)c(Cl)c2)cc1,"inconclusive: 35.5 µM [inhibitor, single point]"
10,CC1=CC=CC2=NC(=O)CC(C)(C(=O)O)N12 (stereo unspecified),inactive
11,CCN(CC)S(=O)(=O)c1cc(NS(=O)(=O)c2cccc(Cl)c2)ccc1C,"inconclusive: 31.6 µM [inhibitor, single point]"
12,CN(CC(=O)Nc1ccccc1Br)CC(=O)NC(c1ccccc1)c1ccccc1,inactive
13,COc1cccc(NC(=O)CSc2nc3c([nH]c4ccccc43)c(=O)n2-c2ccccc2)c1,"inconclusive: 3.16 µM [inhibitor, full curve]"
14,Cc1ccccc1-c1nnc(CN2CCN(c3cccc(C)c3C)CC2)o1,"inconclusive: 35.5 µM [inhibitor, single point]"
15,CCN(CC)CCN1C(=O)c2oc3ccccc3c(=O)c2C1c1ccccc1 (stereo unspecified),"inconclusive: 0.562 µM [inhibitor, full curve, poor fit]"
16,CCOC(=O)CSc1nc(N)c(C#N)c(-c2cccs2)c1C#N,"inconclusive: 22.4 µM [inhibitor, single point]"
17,O=C(COc1ccc(Br)cc1)N(Cc1nnc(-c2ccccc2Cl)o1)C1CC1,inactive
18,Cc1ccccc1N1C(=O)C(Oc2ccc(Cl)cc2)C1CNCCCOC(C)C (stereo unspecified),"inconclusive: 35.5 µM [inhibitor, single point]"
19,Cc1ccc(C(=O)OCC(=O)NC2CC2)cc1S(=O)(=O)N1CCOCC1,inactive
20,CCCCC(CC)CNC(=O)c1ccc2c(=O)n(CCOC)c(=O)[nH]c2c1 (stereo unspecified),inactive
21,CN(C)c1ccnc(SCc2ccccc2Cl)c1C#N,"inconclusive: 8.91 µM [inhibitor, partial curve, poor fit]"
22,FC(F)(F)c1nc(-c2cccs2)ncc1-c1nnnn1-c1ccc(Cl)cc1,inactive
23,CC(C)(C)c1ccc(C(=O)NCC(c2cccs2)S(=O)(=O)c2ccc(F)cc2)cc1 (stereo unspecified),"inconclusive: 35.5 µM [inhibitor, single point]"

row,SMILES,Potency
1,Cc1ccc(/C(O)=C2\C(=O)C(=O)N(CC(C)O)C2c2ccc(N(C)C)cc2)cc1 (stereo unspecified),"inconclusive: 35.5 µM [inhibitor, single point]"
2,O=[N+]([O-])c1cccc(C2Nc3cccc4cccc(c34)N2)c1,"inconclusive: 0.631 µM [inhibitor, partial curve, poor fit]"
3,CCOc1cc(C(=O)Nc2nnc3n2CCS3)cc(OCC)c1OCC,inactive
4,Brc1ccc2nc(N3CCN(c4ccccc4)CC3)sc2c1,inactive
5,CCc1sc(Nc2ccc(Cl)cc2)nc1-c1cc2cccc(OC)c2oc1=O,inactive
6,CN(C)C(=O)c1c(C(F)(F)F)nn(C)c1Cl,inactive
7,CN1CCN(C(=O)c2ccc3c(c2)N(Cc2c(F)cccc2Cl)C(=O)c2ccccc2S3)CC1,"inconclusive: 12.6 µM [inhibitor, partial curve, poor fit]"
8,COc1ccc(/C(=N/Nc2ncnc3ccccc23)C(=O)O)cc1,"inconclusive: 2.82 µM [inhibitor, partial curve, poor fit]"
9,C=CCNc1nnc(SC2CC(=O)N(c3ccc(OC)cc3)C2=O)s1 (stereo unspecified),inactive
10,CCCCCCCCCCOC(=O)Cn1c(COc2cccc(C)c2)[n+](C)c2ccccc21,"inconclusive: 15.8 µM [inhibitor, partial curve, poor fit]"
11,CCN(CC)C(=S)SCc1csc(CC(=O)Nc2ccccc2C)n1,inactive
12,OC(c1ccc(Cl)c(Cl)c1)c1ncc(-c2ccccc2Cl)[nH]1 (stereo unspecified),"inconclusive: 35.5 µM [inhibitor, single point]"
13,CC(C(=O)Nc1ccc(F)c(Cl)c1)N1Cc2ccccc2C1=O (stereo unspecified),"inconclusive: 35.5 µM [inhibitor, single point]"
14,CCCCCCn1c(=O)n2n(c1=O)C[C@]1(OC(=O)NC3CCCC3)CN(S(=O)(=O)c3ccc(C)cc3)C[C@]1(O)C2,"inconclusive: 35.5 µM [inhibitor, single point]"
15,CC1(C(=O)NS(=O)(=O)c2ccc3c(c2)CCO3)CCN1C(=O)C1(c2ccc(Cl)cc2)CC1 (stereo unspecified),inactive
16,CCCNC(=O)c1onc(CSc2ccc(F)cc2)c1C(=O)NC(C)C,"inconclusive: 5.62 µM [inhibitor, single point]"
17,COc1cccc(NC(=O)CSc2nnc(-c3cc(C)n(-c4ccccc4)c3C)o2)c1,inactive
18,CCc1nc2c(OCc3cc(Cl)cc(Cl)c3)cccn2c1N(C)C(=O)c1ccc(C)cc1,"inconclusive: 22.4 µM [inhibitor, single point]"
19,Cc1cc(C)c(OCCCn2ccnc2)c(C)c1,inactive
20,COc1ccc(OCC(=O)Nc2c3c(nn2C(C)(C)C)CSC3)cc1,inactive
21,O=C1OC(O)c2cccc3cccc1c23 (stereo unspecified),"inconclusive: 3.55 µM [inhibitor, partial curve]"
22,COc1ccc(Nc2nnc(-c3ccc(O)cc3)c3ccccc23)cc1C(N)=O,inactive
23,CNC(=S)Nc1cc2oc3ccccc3c2cc1OC,"inconclusive: 4.47 µM [inhibitor, single point]"
